Test results published in PubChem BioAssay (Tox21).
Where “and” joins values, the source holds several entries; their conditions need not be identical. Equal entries are not always repeated. This list was built around the results that the source calls inconclusive (neither active nor inactive); the mix of calls is not that of the screen. A potency beside an inconclusive call is a rough fit, not a confirmed value. Some compounds were tested as several samples or in several runs, with calls that do not always agree. Calls of active or inactive are those of the source. The call rests on the fitted dose curve; in most records, active means well fitted curve in the direction sought with a large enough effect in the repeat runs; inconclusive means weak or mixed curves; inactive means no such curve, though single readings can be large; an effect the other way counts as inactive or inconclusive.

Experiments:
[1] = qHTS RealTime-Glo MT Cell Viability Assay in HepG2 cells - 16 hour (AID 1224885); further: nearly all actives have a fitted effect of over 50% in size
How it was run: (§1)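 HepG2 cells (600/well) were dispensed with RealTime-Glo reagents, incubated 5 h at 37 °C, then treated with compounds in DMSO for up to 40 h. Nonlytic NanoLuc luminescence reflecting viable cells was read at each stated time point.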

[2] = qHTS RealTime-Glo MT Cell Viability Assay in HEK293 cells - 24 hour (AID 1224886); further: nearly all actives have a fitted effect of over 50% in size
How it was run: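 HEK293 cells seeded with NanoLuc/prosubstrate reagent, rested 5 h at 37 C, then dosed and kept at 37 C up to 40 h. Nonlytic real-time luminescence from viable cells read at 0, 8, 16, 24, 32 and 40 h.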

[3] = qHTS RealTime-Glo MT Cell Viability Assay in HEK293 cells - 8 hour (AID 1224887); further: nearly all actives have a fitted effect of over 50% in size
How it was run: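 Luminescence readout at each listed time point; HEK293, 600 cells/well, RealTime-Glo MT reagent added with cells; compounds pinned (23 nL in DMSO) after 5 h at 37 C; continuous culture at 37 C.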

[4] = A CellTox Green Cytotoxicity Assay to monitor cytotoxicity in HEK293 cells - 16 hour (AID 1224888); further: nearly all actives have a fitted effect of over 35% in size
How it was run: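 Read-out: fluorescence of a cell-impermeant cyanine dye staining DNA of dead cells, proportional to cytotoxicity. HEK293, 600 cells/well with reagent, compound (23 nL DMSO) added after 5 h; reads at 0, 8, 16, 24, 32, 40 h.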

[5] = qHTS RealTime-Glo MT Cell Viability Assay in HepG2 cells - 0 hour (AID 1224889); further: nearly all actives have a fitted effect of over 50% in size
How it was run: as §1
Potency means the concentration at half of the fitted maximal effect; tags describe the fitted curve by direction and shape.

## CC(C(=O)O)c1ccc(/C=C2\CCCCC2=O)cc1 (stereo not given)
[1]
  Potency: inactive
[2]
  Potency: inactive

## COc1ccc(C(=O)/C(Br)=C\C(=O)O)cc1
[1]
  Potency: inconclusive: 19.5 µM [cytotoxic, full curve]
[2]
  Potency: active: 38.9 µM
[3]
  Potency: inconclusive: 49 µM [cytotoxic, single point]

## Cc1cc(C(C)(C)C)c(O)c(C)c1Cn1c(=O)n(Cc2c(C)cc(C(C)(C)C)c(O)c2C)c(=O)n(Cc2c(C)cc(C(C)(C)C)c(O)c2C)c1=O
[1]
  Potency: inconclusive: 43.7 µM [cytotoxic, partial curve]
[2]
  Potency: inconclusive: 24.6 µM [cytotoxic, partial curve]
[3]
  Potency: inconclusive: 27.5 µM [cytotoxic, partial curve]
[4]
  Potency: inactive

## c1cc(-c2ccncc2)ccn1
[1]
  Potency: inconclusive: 21.9 µM [cytotoxic, single point]
[5]
  Potency: inconclusive: 21.9 µM [cytotoxic, single point]

## COC(=O)C1=C(C)NC(C)=C(C(=O)O[C@@H]2CCCN(Cc3ccccc3)C2)[C@@H]1c1cccc([N+](=O)[O-])c1
[1]
  Potency: inconclusive: 16.9 µM [cytotoxic, partial curve, poor fit]
[5]
  Potency: active: 5.35 µM

## CCCCCCCCCCCCCCCC[N+](C)(C)CC
[1]
  Potency: active: 49.1 µM and active: 23.9 µM
[3]
  Potency: inconclusive: 7.56 µM [cytotoxic, partial curve]
[4]
  Potency: inconclusive: 6.01 µM [activator, full curve, poor fit]

## CCCCC(CC)COC(C)=O (stereo not given)
[2]
  Potency: inactive

## CCc1ccc(O)c(C(C)(C)C)c1
[1]
  Potency: inconclusive: 34.7 µM [cytotoxic, partial curve, poor fit]
[3]
  Potency: inactive

## c1cnc2c(c1)ccc1cccnc12
[1]
  Potency: inconclusive: 24.5 µM [cytotoxic, partial curve, poor fit]
[3]
  Potency: inconclusive: 6.22 µM [cytotoxic, partial curve] and inconclusive: 12.3 µM [cytotoxic, full curve]

## O=C(c1ccc(F)cc1)C1CCN(CCn2c(=S)[nH]c3ccccc3c2=O)CC1
[1]
  Potency: inconclusive: 23.9 µM [cytotoxic, partial curve]
[3]
  Potency: active: 4.77 µM

## O=C1NC2CCCCN2C12CCN(CCCN1c3ccccc3CCc3ccc(Cl)cc31)CC2 (stereo not given)
[1]
  Potency: inconclusive: 23.9 µM [cytotoxic, partial curve]
[2]
  Potency: active: 8.49 µM
[4]
  Potency: inconclusive: 9.52 µM [activator, partial curve]

## CCCCOc1ccc(C(=O)CCN2CCCCC2)cc1
[1]
  Potency: active: 23.9 µM
[2]
  Potency: active: 23.9 µM
[3]
  Potency: inconclusive: 26.8 µM [cytotoxic, single point]

## CCCCCCCCC(=O)OCC(C)OC(=O)CCCCCCCC (stereo not given)
[1]
  Potency: inactive

## Nc1ccc(C(=O)OCC(O)CO)cc1 (stereo not given)
[2]
  Potency: inactive

## O=C(O)c1cccc(N(Cc2cccnc2)c2ccc(OC(F)F)c(OC(F)F)c2)c1
[1]
  Potency: inconclusive: 19.5 µM [cytotoxic, partial curve, poor fit]
[5]
  Potency: active: 17.4 µM

## [Cl][Au]([Cl])[Cl]
[1]
  Potency: active: 15.5 µM
[3]
  Potency: inconclusive: 49 µM [cytotoxic, partial curve]

## CN(C)c1ccc2nc3ccc(=[N+](C)C)cc-3sc2c1
[1]
  Potency: active: 14.9 µM and active: 17.4 µM and active: 19 µM
[2]
  Potency: active: 2.36 µM and active: 2.19 µM and active: 2.68 µM
[3]
  Potency: active: 2.97 µM and active: 2.75 µM and active: 3.01 µM

## Nc1nnc(-c2ccc([N+](=O)[O-])o2)o1
[1]
  Potency: inconclusive: 49 µM [cytotoxic, partial curve, poor fit]

## N=C1C=CC(=C(c2ccc(N)cc2)c2ccc(N)cc2)C=C1
[1]
  Potency: inconclusive: 21.9 µM [cytotoxic, partial curve]
[3]
  Potency: inconclusive: 3.47 µM [cytotoxic, full curve]

## CCOC(=O)c1nc(C(Cl)(Cl)Cl)n(-c2ccc(Cl)cc2Cl)n1
[1]
  Potency: inconclusive: 54.9 µM [cytotoxic, single point]
[3]
  Potency: inconclusive: 43.6 µM [cytotoxic, partial curve]

## O=[N+]([O-])c1ccc2c(c1)Cc1ccccc1-2
[1]
  Potency: inactive

## C[C@@H]1C[C@H]2[C@@H]3CCC4=CC(=O)C=C[C@]4(C)[C@@]3(Cl)[C@@H](O)C[C@]2(C)[C@@]1(OC(=O)c1ccco1)C(=O)CCl
[1]
  Potency: inconclusive: 19 µM [cytotoxic, partial curve]

## O=Cc1c2ccccc2c(Cl)c2ccccc12
[2]
  Potency: inconclusive: 19 µM [cytotoxic, partial curve, poor fit]

## Nc1ccccc1Nc1ccccc1
[1]
  Potency: inactive
[3]
  Potency: inconclusive: 6.94 µM [cytotoxic, full curve]

## c1ccc(Nc2ccccc2)cc1
[1]
  Potency: inconclusive: 38.9 µM [cytotoxic, partial curve]
[2]
  Potency: active: 17.4 µM
[3]
  Potency: inconclusive: 21.9 µM [cytotoxic, partial curve]
[4]
  Potency: inconclusive: 21.9 µM [activator, partial curve]

## NNc1nc(-c2ccc([N+](=O)[O-])cc2)cs1
[1]
  Potency: inconclusive: 24.5 µM [cytotoxic, partial curve]

## CCO[C@@H]1O[C@H](C(COCc2ccccc2)OCc2ccccc2)[C@H](OCc2ccccc2)[C@H]1O (stereo not given in full)
[1]
  Potency: inconclusive: 13.4 µM [cytotoxic, partial curve]
[2]
  Potency: inconclusive: 19 µM [cytotoxic, partial curve]
[3]
  Potency: inconclusive: 19 µM [cytotoxic, partial curve]
[5]
  Potency: inconclusive: 16.9 µM [cytotoxic, partial curve, poor fit]

## CCCCCCCCCI
[1]
  Potency: inactive

## CC(=O)[C@@]1(O)CC[C@H]2[C@@H]3C[C@H](C)C4=CC(=O)CC[C@]4(C)[C@H]3CC[C@@]21C
[1]
  Potency: inactive
[2]
  Potency: inconclusive: 19 µM [cytotoxic, partial curve]
[3]
  Potency: inconclusive: 19 µM [cytotoxic, partial curve, poor fit]
[5]
  Potency: active: 1.51 µM

## CCN(Cc1cccnc1)C(=O)c1cccc(Cl)c1[C@]1(C)C(=O)N(Cc2ccc(OC)cc2OC)c2ccc(Cl)cc21
[1]
  Potency: inconclusive: 20.4 µM [cytotoxic, partial curve]
[2]
  Potency: active: 20.4 µM

## CO[C@H]1C=CO[C@@]2(C)Oc3c(C)c(O)c4c(O)c(c(/C=N/N5CCN(C)CC5)c(O)c4c3C2=O)NC(=O)/C(C)=C\C=C[C@H](C)[C@H](O)[C@@H](C)[C@@H](O)[C@@H](C)[C@H](OC(C)=O)[C@@H]1C
[1]
  Potency: inconclusive: 43.9 µM [cytotoxic, partial curve] and inconclusive: 23.9 µM [cytotoxic, partial curve]
[3]
  Potency: active: 2.77 µM and active: 988 nM and active: 10.7 µM
[5]
  Potency: inconclusive: 43.9 µM [cytotoxic, partial curve, poor fit]

## Nc1cccc2c(=O)[nH][nH]c(=O)c12
[1]
  Potency: inactive

## CCCOC(=O)c1cc(O)c(O)c(O)c1
[1]
  Potency: inconclusive: 43.6 µM [cytotoxic, partial curve, poor fit]
[2]
  Potency: inconclusive: 48.7 µM [cytotoxic, single point] and inconclusive: 38.9 µM [cytotoxic, partial curve]
[3]
  Potency: inconclusive: 61.4 µM [cytotoxic, single point] and inconclusive: 54.9 µM [cytotoxic, partial curve, poor fit]

## CCn1c2ccccc2c2cc([N+](=O)[O-])ccc21
[1]
  Potency: inconclusive: 38.9 µM [cytotoxic, partial curve, poor fit]
[2]
  Potency: inconclusive: 34.7 µM [cytotoxic, partial curve]
[3]
  Potency: inconclusive: 49 µM [cytotoxic, single point]

## Cc1nc2ccccn2c(=O)c1CCN1CCC(C(=O)c2ccc(F)cc2)CC1
[2]
  Potency: active: 7.56 µM
[3]
  Potency: active: 8.49 µM

## CN(C)CCN1CCN(c2cccc(Cl)c2)C1=O
[2]
  Potency: inconclusive: 15.1 µM [cytotoxic, single point]
[3]
  Potency: inconclusive: 15.1 µM [cytotoxic, single point]

## CCCCc1nc2cccnc2n1Cc1ccc(-c2ccccc2-c2nnn[nH]2)cc1
[2]
  Potency: inconclusive: 13.8 µM [cytotoxic, full curve]
[3]
  Potency: inconclusive: 13.8 µM [cytotoxic, full curve]
[5]
  Potency: active: 24.5 µM

## c1ccc2[nH]c(-c3cscn3)nc2c1
[2]
  Potency: inconclusive: 43.9 µM [cytotoxic, partial curve] and inconclusive: 27.5 µM [cytotoxic, partial curve]
[3]
  Potency: inconclusive: 43.9 µM [cytotoxic, partial curve] and inconclusive: 43.6 µM [cytotoxic, partial curve]

## C[C@@H]1CC[C@H]2C(C)(C)[C@H]3C[C@@]12CC[C@@]3(C)O
[2]
  Potency: inconclusive: 48.9 µM [cytotoxic, partial curve, poor fit]
[3]
  Potency: inconclusive: 48.9 µM [cytotoxic, single point]
[4]
  Potency: active: 43.6 µM

## Cc1cc(C)c(N=Nc2c(O)c(S(=O)(=O)O)cc3cc(S(=O)(=O)O)ccc23)cc1C
[2]
  Potency: inconclusive: 2.73 µM [rising, partial curve]
[3]
  Potency: inconclusive: 2.73 µM [rising, single point]

## CCOc1ccc(N)c([N+](=O)[O-])c1
[2]
  Potency: inconclusive: 54.9 µM [cytotoxic, partial curve, poor fit]
[3]
  Potency: inconclusive: 49 µM [cytotoxic, single point]
